From PubChem BioAssay AID1346428 (National Center for Advancing Translational Sciences (NCATS), 2018)
“And” between values parts separate entries of the source, which are not always exact repeats. Equal values may be shown once. The whole screen tested about 48,000 compounds, of which about 1,200 (2.5%) were called active. Another 2% or so got no clear call; they are omitted.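 How the source made its calls: active means activation of at least 60% and not above a set upper limit (about 1 call in 100 departs from these limits); inconclusive means activation of 40% to 60%, or above that upper limit; inactive means activation under 40%.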 Some of the results follow.

target: Probable G-protein coupled receptor 32 (Homo sapiens) (UniProt O75388); assay: qHTS for Agonists of Human Resolvin D1 Receptor DRV1; settings: CHO-K1 GPR32 beta-arrestin PathHunter luminescence, 90 min; at 76.9 µM; stronger effect = higher value; zero percent set by DMSO-only wells
Procedure, shortened: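 PathHunter enzyme-fragment complementation, CHO-K1 GPR32 stable line; 2,500 cells/well, overnight attach; cpd 90 min 37 °C 5% CO2; detection reagent 1 h RT; chemiluminescence. DMSO = EC0.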

UniProt O75388, sequence (O75388 whole entry, looked up, the tested form may be a part): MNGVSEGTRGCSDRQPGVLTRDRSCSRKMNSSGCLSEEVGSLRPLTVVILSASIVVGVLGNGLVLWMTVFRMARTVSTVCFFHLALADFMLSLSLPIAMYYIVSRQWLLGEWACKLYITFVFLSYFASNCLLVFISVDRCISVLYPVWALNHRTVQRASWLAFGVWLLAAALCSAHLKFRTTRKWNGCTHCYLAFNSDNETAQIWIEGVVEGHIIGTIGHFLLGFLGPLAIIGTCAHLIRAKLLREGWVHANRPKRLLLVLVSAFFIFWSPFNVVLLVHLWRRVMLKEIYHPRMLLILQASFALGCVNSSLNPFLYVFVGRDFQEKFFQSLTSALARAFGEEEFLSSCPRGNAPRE

activation, inactive:
NC(=O)CC[C@@H]1NC(=O)[C@H](Cc2ccccc2)NC(=O)[C@H](Cc2ccc(O)cc2)NC(=O)CCSSC[C@@H](C(=O)N2CCC[C@H]2C(=O)N[C@@H](CCCN=C(N)N)C(=O)NCC(N)=O)NC(=O)[C@H](CC(N)=O)NC1=O 9.5%
CCCN1C(=O)C2(c3ccccc31)c1c(oc3ccc(F)cc3c1=O)C(=O)N2CCCOC(C)C (stereo unspecified) 7.48%
Cc1oc2ncnc(N3CCCCC3)c2c1C(=O)N1CCN(c2cccc(Cl)c2)CC1 -7.09%
CN(C(=O)CSc1nnc(-c2ccccc2F)o1)C1CCCCC1 30.1%
CCOC(=O)c1cccc(NC(=O)c2cc3c(-c4cccc(OC)c4)nn(C)c3s2)c1 -8.3%
Cc1nc2c(c(C)c1CCC(=O)NCc1ccccc1)c(=O)n(C)c(=O)n2C 0.522%
COCCCNC(=O)CSc1nc2c(sc3ccccc32)c(=O)n1CCc1ccccc1 7.62%
COc1cc(NC(=O)CSc2nc3ccccc3nc2Cc2ccc(Cl)cc2)cc(OC)c1 -21.2%
Cc1cccc(NC(=O)C2CCC(CNS(=O)(=O)c3csc(C(N)=O)c3)CC2)c1C (stereo unspecified) 7.23%
Cc1ccc(S(=O)(=O)c2nc(S(C)(=O)=O)sc2N(C)Cc2ccccc2)cc1 -12.5%
Cc1nn2c(=O)cc(COc3ccc(/C=C(\C#N)C(=O)Nc4ccc(F)cc4)cc3)nc2s1 0.214%
N#Cc1c(N)n(-c2cccc(Cl)c2)c2nc3ccccc3nc12 -5.75%
COc1cccc(Nc2cc(C)nc3nc(-c4ccc(Cl)cc4)nn23)c1 3.24%
CCOC(=O)COc1ccccc1C1C(C(=O)OC)=C(C)NC2=C1C(=O)c1ccccc12 (stereo unspecified) -74.6%
O=C(COc1ccccc1Cl)Nc1nnc(S(=O)(=O)N2CCCCCC2)s1 5.44%
O=C(NCCCc1nc2ccccc2n1Cc1c(F)cccc1Cl)C1CCCCC1 -1.64%
COc1ccc(NCc2cc3cc4c(cc3n(CC(=O)Nc3cc(C)cc(C)c3)c2=O)OCO4)cc1 -34.2%
Cc1nn(C)c2c1c(-c1ccccc1)cc(=O)n2CC(=O)Nc1ccccc1C(F)(F)F -7.13%
CCC(C)n1ncn(-c2ccc(N3CCN(c4ccc(OC[C@H]5CO[C@](Cn6cncn6)(c6ccc(Cl)cc6Cl)O5)cc4)CC3)cc2)c1=O (stereo partly specified) 8.83%
Cc1ccc(Cl)cc1NC(=O)Cc1ccc(-n2c(C)nc3cccnc32)cc1 3.03%
CCOc1ccc(-n2c(=O)c3c(C)c(C)sc3n(CC(=O)N(CC)Cc3ccccc3)c2=O)cc1 39.8%
Cc1cn2c(=O)cc(COc3ccc(Cl)cc3)nc2s1 -6.08%
CCc1ccc(CNC(=O)C2Cc3cc(S(=O)(=O)N4CCCCCC4)ccc3N2C(C)=O)cc1 (stereo unspecified) 8.73%
COc1ccc2c(c1)CC(C(=O)Nc1cc(Cl)ccc1C)CO2 (stereo unspecified) -14.4%
CCOc1ccc(CNc2nc3nc(C)c(Cc4ccccc4)c(=O)n3[nH]2)cc1 8.81%
CCCc1nn2c(=O)cc(COC(=O)c3ccccc3NC(=O)c3cccs3)nc2s1 -3%
COC(=O)[C@@H]1[C@H]2C[C@H]3c4[nH]c5ccccc5c4CCN3C[C@@H]2CC[C@@H]1O -14.3% and -11.7%
COc1cc(C2c3c(oc4ccccc4c3=O)C(=O)N2c2ccccn2)cc(OC)c1OC (stereo unspecified) -14.8%
Cc1ccc(OCC(=O)Nc2ccc(Cl)c(-c3nc4ncccc4o3)c2)c(C)c1 -1.77%
COc1cccc(C2CC(=O)N(c3ccc(F)cc3)C3=C2C(=O)OC3)c1OC (stereo unspecified) 2.5%
Cc1cccc(NC(=O)C2CCC(CNS(=O)(=O)c3ccc(Br)s3)CC2)c1 (stereo unspecified) -5.11%
Cc1ccc(C)c(C(=O)c2c(N)c(-c3nc(-c4ccc5c(c4)OCO5)cs3)c3ccccn23)c1 22.3%
COc1ccc(C(=O)Nc2ccc(-n3nncc3-c3ccccc3)cc2)cc1OC -15.2%
Cc1cccc(N2CCN(C(=O)Cn3ncc4c5ccccc5n(C)c4c3=O)CC2)c1C 3.75%
Cc1cc2oc(=O)cc(C)c2c2occ(-c3ccc(Cl)cc3)c12 -6.31%
Cc1ccc2[nH]c3c(=O)n(CC(=O)N4CCCCC4)ncc3c2c1 2.77%
Cc1ccc(C)n1-c1nnc(N2CCCC(C(=O)NCc3cccc(F)c3)C2)s1 (stereo unspecified) -1.75%
COc1ccc(OC)c(CNC(=O)C2CCN(c3nc4ccccc4nc3C(F)(F)F)CC2)c1 -3.49%
CCc1ccc(S(=O)(=O)c2cn(Cc3ccccc3)c3cc(F)c(F)cc3c2=O)cc1 3.11%
CCc1ccccc1Nc1nc2ccccc2c2nncn12 -24%
Cc1ccc(-n2nc(CO)c(C(=O)NCc3cccnc3)n2)cc1 -7.93%
Cc1ccc(OCC(=O)Nc2ccc3nc(SCC(=O)N4CCOCC4)sc3c2)cc1 1.32%
Cn1c(CN2CCCCC2)nc2cc(NC(=O)c3ccccc3Cl)ccc21 -11.7%
CCCCNC(=O)CCCn1c(=O)c2ccccc2n(Cc2cccc(Cl)c2)c1=O -1.11%
CCCCc1c(C)nc2c(-c3ccc(OC)cc3)c(C)[nH]n2c1=O 23.2%
CCC(=O)N1CCc2cc(Br)cc(S(=O)(=O)CCC(=O)N3CCN(c4ccccc4F)CC3)c21 -8.8%
Cc1ccc(C(C)OC(=O)C2(C)CCC(C(=O)O)C2(C)C)cc1 (stereo unspecified) -2.2%
COc1ccc2nc(NC(=O)c3nc(SC(C)C)ncc3Cl)sc2c1 10.6%

activation, active:
CC(C)(C)c1ccc(OCC(=O)Nc2ccc(S(=O)(=O)Nc3ncccn3)cc2)cc1 78.6%
Clc1ccc(C(c2ccccc2)c2c[nH]c3ccccc23)s1 (stereo unspecified) 107%
O=C(NC1CCCC1)c1cc(Nc2cccc(C(F)(F)F)c2)nc2ccccc12 96.3%
